Measurements taken from PubChem BioAssay AID540317 (National Center for Advancing Translational Sciences (NCATS), 2011).
The campaign covered roughly 390,000 compounds. About 2,200 (0.56%) were called active. This list was built around the results that the source calls inconclusive (neither active nor inactive); the mix of calls is not that of the screen. The call rests on the fitted dose curve; in most records, active means well fitted inhibition curve with a large enough effect; inconclusive means small, poorly fitted or top-dose-only effect; inactive means no such curve, though single readings can be large or run the other way. Where the call is inconclusive, the potency comes from a doubtful curve fit.
Further: nearly all actives have a fitted effect of over 70% in size.
Potency means the concentration at half of the fitted maximal effect; tags describe the fitted curve by direction and shape.

Each compound was assayed against Chromobox protein homolog 1 (Homo sapiens) (UniProt P83916) (assay: HTS for Inhibitors of HP1-beta Chromodomain Interactions with Methylated Histone Tails). Conditions: AlphaScreen HP1-beta / biotin-H3K9me3 peptide binding; series mostly up to 114 µM; activity change, negative = inhibition: at the top concentration.
Chain of UniProt P83916 (P83916 whole entry, looked up): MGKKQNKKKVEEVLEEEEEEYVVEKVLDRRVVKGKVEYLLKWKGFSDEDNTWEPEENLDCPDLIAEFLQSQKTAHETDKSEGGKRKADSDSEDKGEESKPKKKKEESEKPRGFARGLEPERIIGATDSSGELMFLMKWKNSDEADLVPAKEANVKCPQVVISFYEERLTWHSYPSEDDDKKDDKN
Procedure, shortened: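 Compound inhibition of the preformed complex between 50 nM HP1-beta and 50 nM biotinylated H3K9me3 peptide was read by AlphaScreen. Buffer was PBS pH 7.4 with 0.01% Tween-20. Incubations ran 30 min at room temperature, with 10 ug/mL donor/acceptor beads.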
For `CCOC(=O)c1ccc(NCc2ccncc2)cc1`, the “activity change, negative = inhibition” value was inactive: -4.05%. With `Cc1cc(C2=NNC(=Nc3ccccc3)SC2)c(C)n1C` the Potency was inconclusive: 14.1 µM [inhibitor, full curve]. With `C/C(=N\Nc1ccc(Cl)c(C(=O)O)c1)c1cccc2ccccc12` the Potency was active: 79.4 µM. For `COc1ccc(/C=N/Nc2cc(C)nc3ccc(Br)cc23)cc1`, the Potency was inconclusive: 50.1 µM [inhibitor, partial curve]. For `O=C1c2ccccc2-c2onc3c(NCCO)cc(NC4CCCCC4)c1c23`, the Potency was inconclusive: 7.94 µM [inhibitor, full curve, poor fit]. In the case of `Cc1ccc(C2=NN(C(=O)CCl)C(c3ccco3)C2)o1` (stereo unspecified), the Potency is reported as inconclusive: 89.1 µM [inhibitor, single point]. In the case of `Cc1ccc(-n2c(C)cc(/C=C3\NC(=O)NC3=O)c2C)c(C)c1`, the Potency is reported as inconclusive: 39.8 µM [inhibitor, full curve]. For `Cc1ccc(-c2nnc(OCc3cccnc3)c3ccccc23)cc1`, the “activity change, negative = inhibition” value was inactive: 23.3%. For `COc1ccc(Cl)cc1N1C(=O)CN(Cc2cc(OC)c(OC)c(OC)c2)C1=S`, the Potency was inconclusive: 22.4 µM [inhibitor, single point]. For `CSc1ccc(Cl)c(C(=O)OCC(=O)NCc2ccco2)c1`, the Potency was inconclusive: 50.1 µM [inhibitor, partial curve, poor fit]. In the case of `Oc1c(Cl)cccc1C=Nc1cc(C(F)(F)F)ccc1N1CCCC1`, the Potency is reported as inconclusive: 10 µM [inhibitor, full curve]. In the case of `CN(C)CCCNc1ncnc2sc(-c3ccccc3)cc12`, the Potency is reported as inconclusive: 28.2 µM [inhibitor, single point]. `Cc1nccn1CCOc1ccc(Cl)cc1` was tested, and the Potency was inconclusive: 39.8 µM [inhibitor, partial curve]. In the case of `O=C(CN1C(=O)COc2ccc(S(=O)(=O)N3CCOCC3)cc21)NCc1ccco1`, the “activity change, negative = inhibition” value is reported as inactive: 16.7%. In the case of `CCn1c2ccccc2c2cc(CN3CCN(Cc4ccccc4C)CC3)ccc21`, the Potency is reported as inconclusive: 12.6 µM [inhibitor, partial curve, poor fit]. With `Cc1oc(C)c2c(=O)ccc3c(c12)OC(N)=C(C#N)C3c1ccc(F)cc1` (stereo unspecified) the Potency was inconclusive: 89.1 µM [inhibitor, single point]. `Cn1c(CCN2CCOCC2)nc2cc(NC(=O)COc3ccccc3)ccc21` was tested, and the “activity change, negative = inhibition” value was inactive: 10.3%. `CCOC(=O)/C(C#N)=C1\CC2CCC1(C)C2(C)C` (stereo unspecified) was tested, and the Potency was inconclusive: 12.6 µM [inhibitor, partial curve]. In the case of `COc1ccc2[nH]c3c(=O)n(Cc4ccc(C(=O)N5CCC(C(N)=O)CC5)cc4)c(=S)[nH]c3c2c1`, the Potency is reported as inconclusive: 3.98 µM [inhibitor, full curve, poor fit]. In the case of `Cc1cc2nc(-c3ccc(OCc4ccccc4)cc3)cc(C(F)(F)F)n2n1`, the “activity change, negative = inhibition” value is reported as inactive: 51.1%. `O=C1NC(=S)SC1=Cc1ccccc1Cl` was tested, and the Potency was inconclusive: 31.6 µM [inhibitor, partial curve, poor fit]. With `O=C(Nc1ccc(-c2csc(Nc3cccc(C(F)(F)F)c3)n2)cc1)c1cc([N+](=O)[O-])cc(C(F)(F)F)c1` the “activity change, negative = inhibition” value was inactive: -3.89%. In the case of `CCOc1ccc(-c2nn3c(-c4ccccc4)nnc3s2)cc1`, the Potency is reported as inconclusive: 15.8 µM [inhibitor, full curve, poor fit]. `COC(=O)C1CCN(C(=O)c2cc(-c3ccco3)nc3ccccc23)CC1` was tested, and the Potency was inconclusive: 20 µM [inhibitor, full curve]. `C[C@H]1CN(S(=O)C(C)(C)C)[C@@H](CCO)/C1=C\c1ccccc1` (stereo partly specified) was tested, and the “activity change, negative = inhibition” value was inactive: 9.89%. For `COc1ccc(-c2nc3cnccn3c2Nc2ccc3c(c2)OCO3)cc1`, the Potency was inconclusive: 56.2 µM [inhibitor, partial curve, poor fit]. `CCOC(=O)c1cc2occc2n1CCCN1C(=O)c2ccccc2C1=O` was tested, and the Potency was inconclusive: 31.6 µM [inhibitor, partial curve]. With `O=C(Nc1nc2c(Cl)ccc(Cl)c2s1)c1ccco1` the “activity change, negative = inhibition” value was inactive: 28.4%. For `Cc1ccc2oc(=O)c3cc(C(=O)NCCN4CCN(C)CC4)sc3c2c1`, the “activity change, negative = inhibition” value was inactive: 41.6%. `O=C(COc1ccc(/C=N/NC(=O)c2ccc(O)cc2)cc1)Nc1cccc([N+](=O)[O-])c1` was tested, and the “activity change, negative = inhibition” value was inactive: 2.62%. For `COc1cc(C(C)=O)ccc1OCC(O)CNCC(O)c1ccccc1` (stereo unspecified), the Potency was inconclusive: 56.2 µM [inhibitor, single point]. For `COc1ccc(NC(C)=O)cc1NC(=O)C1CCCN1C(=O)c1cccs1` (stereo unspecified), the “activity change, negative = inhibition” value was inactive: 35.1%. `O=C(Nc1ccccc1)Nc1cc(S(=O)(=O)N2CCOCC2)ccc1N1CCCC1` was tested, and the Potency was inconclusive: 25.1 µM [inhibitor, single point]. In the case of `COc1ccc(OC)c(NC(=S)N2CCN(C/C=C/c3ccccc3)CC2)c1`, the Potency is reported as inconclusive: 35.5 µM [inhibitor, single point]. In the case of `O=C(Cn1cnc2c(NCc3ccccc3)ncnc21)NCCN1CCOCC1`, the “activity change, negative = inhibition” value is reported as inactive: 31.2%. `CCOC(=O)c1c(-c2ccccc2)oc2ccc(NS(=O)(=O)c3ccc(C(C)C)cc3)cc12` was tested, and the “activity change, negative = inhibition” value was inactive: 32.6%. With `COc1ccc(N2Cc3cccc(C(=O)NC(C)CCc4ccco4)c3C2=O)cc1` (stereo unspecified) the Potency was inconclusive: 35.5 µM [inhibitor, partial curve]. With `O=C(CSc1nnc(-c2ccccc2O)o1)N1CCOCC1` the “activity change, negative = inhibition” value was inactive: -19.7%. For `O=C(CNC(=O)c1ccco1)OCc1ccccc1F`, the “activity change, negative = inhibition” value was inactive: 5.6%. For `N#Cc1nc(COc2ccc(Br)cc2)oc1NCCCn1ccnc1`, the Potency was inconclusive: 50.1 µM [inhibitor, partial curve]. For `CN(C)S(=O)(=O)c1cccc(-c2nn(-c3ccccc3)cc2/C=C2\SC(=S)NC2=O)c1`, the Potency was inconclusive: 50.1 µM [inhibitor, partial curve, poor fit]. In the case of `Cc1cc(N=Nc2ccc(C)c(N=Nc3cc(C)c(N)cc3N)c2)c(N)cc1N`, the Potency is reported as inconclusive: 50.1 µM [inhibitor, partial curve]. `Cc1cc(C)n2nc(C(=O)NCc3ccccc3)cc2n1` was tested, and the Potency was inconclusive: 20 µM [inhibitor, partial curve, poor fit]. In the case of `COc1cc(/C=C2/C(=O)c3cccc([N+](=O)[O-])c3C2=O)c(Br)cc1O`, the Potency is reported as active: 25.1 µM. With `CCCCN(C(=O)c1cc2c(s1)CCC2)c1c(N)n(CCC)c(=O)[nH]c1=O` the Potency was inconclusive: 70.8 µM [inhibitor, partial curve]. `CCCNS(=O)(=O)c1ccc(CCC(=O)NCCc2ccc(OC)c(OC)c2)cc1` was tested, and the Potency was inconclusive: 89.1 µM [inhibitor, partial curve, poor fit]. For `COc1ccc(CN2CCC(N3CC(C)OC(C)C3)CC2)c(OC)c1` (stereo unspecified), the Potency was active: 39.8 µM. `O=C(CN1C(=O)NC2(CCSC2)C1=O)NCc1ccccc1` (stereo unspecified) was tested, and the “activity change, negative = inhibition” value was inactive: 33.5%. With `O=C(CNCc1ccc(Cl)cc1)Nc1ccc(C(=O)N2CCCCCC2)cc1` the Potency was inconclusive: 22.4 µM [inhibitor, full curve]. For `CC1CN(CC(O)COC(c2ccccc2)c2ccccc2)CC(C)O1` (stereo unspecified), the Potency was inconclusive: 56.2 µM [inhibitor, partial curve, poor fit]. For `CCCOc1ccc(CCc2n[nH]c(=S)n2-c2ccccc2)cc1`, the “activity change, negative = inhibition” value was inactive: 23.9%. For `CC(NC(=O)CSc1nc(=O)cc(N)n1CCc1ccccc1)c1ccccc1` (stereo unspecified), the “activity change, negative = inhibition” value was inactive: 19%. `O=C(Nc1nc2ccccc2n1CCN1CCOCC1)c1ccc(Cl)cc1` was tested, and the “activity change, negative = inhibition” value was inactive: 9.37%. For `CCn1c(C)c(C)c2cc(C(=O)N3CCc4ccccc4C3)ccc21`, the Potency was inconclusive: 25.1 µM [inhibitor, single point]. With `Cc1ccc(-c2nc(=S)c3c(n2Cc2ccco2)CC(C)(C)OC3)cc1` the “activity change, negative = inhibition” value was inactive: 25%. In the case of `CNC(=S)N(Cc1ccc(OC)cc1)C1CC(=O)N(c2ccc(OC)cc2)C1=O` (stereo unspecified), the Potency is reported as inconclusive: 44.7 µM [inhibitor, single point]. In the case of `Brc1cccc(OCCCCn2cncn2)c1`, the Potency is reported as inconclusive: 44.7 µM [inhibitor, partial curve]. `C(=N/n1c2ccccc2c2ccccc21)/c1ccco1` was tested, and the Potency was active: 35.5 µM. `CN1CCN(CCCCOc2ccc(Br)cc2)CC1` was tested, and the Potency was inconclusive: 14.1 µM [inhibitor, partial curve, poor fit]. `O=C(CN1CCSCC1)N/N=C/c1ccc(F)cc1` was tested, and the Potency was inconclusive: 44.7 µM [inhibitor, partial curve]. For `Cc1oc(-c2ccccc2)cc1C(=O)Nc1cccc(/C=C/C(=O)O)c1`, the Potency was inconclusive: 31.6 µM [inhibitor, full curve]. In the case of `COc1ccc(OC)c(Nc2nc(-c3sc(N)nc3C)cs2)c1`, the Potency is reported as inconclusive: 15.8 µM [inhibitor, full curve]. `COc1cccc(CNCc2ccco2)c1O` was tested, and the Potency was inconclusive: 17.8 µM [inhibitor, full curve]. For `Cc1cc(C)c2c(=O)n(CC(=O)Nc3cccc(F)c3)sc2n1`, the Potency was inconclusive: 2.24 µM [inhibitor, full curve, poor fit]. With `Cc1cc(O)c(-c2n[nH]c3c2C(c2cccc(O)c2)N(Cc2cccnc2)C3=O)cc1Cl` (stereo unspecified) the Potency was inconclusive: 31.6 µM [inhibitor, partial curve]. In the case of `N#CC(C#N)=C1SC(=Nc2ccccc2)C(=Nc2ccccc2)N1c1ccccc1`, the Potency is reported as inconclusive: 28.2 µM [inhibitor, partial curve, poor fit]. In the case of `COc1ccc(OC)c(C(=O)COC(=O)COc2ccccc2)c1`, the Potency is reported as inconclusive: 89.1 µM [inhibitor, single point]. With `CC(=O)Nc1ccc(NC(=O)CSc2nnc3ccc(-c4ccc(F)cc4)nn23)cc1` the “activity change, negative = inhibition” value was inactive: 25.4%. For `Cn1c(-c2cc(Br)ccc2O)n[nH]c1=S`, the Potency was inconclusive: 39.8 µM [inhibitor, single point]. In the case of `CNCC(=O)O`, the “activity change, negative = inhibition” value is reported as inactive: 9.48%. `CCOC(=O)/C(=N\Nc1ccccc1[N+](=O)[O-])c1csc(N)n1` was tested, and the Potency was inconclusive: 35.5 µM [inhibitor, partial curve, poor fit].
